In patent EP2161029A1, “Composition comprising peptides” (Unilever N.V., priority 2008, dated 2010):
At least one peptide structure holds a part that was inferred or is arguable (an end, a ring closure or a residue). Peptide text beside a SMILES is read from it.

Tested on: ACE
Assay: ACE inhibition, HPLC-UV at-line assay with substrate HHL
Assay type: biochemical
Conditions: n=2; for residual ACE activity (in % of control) 20 µM dipeptide mean / residual ACE activity (in % of control) 200 µM dipeptide mean: substrate Hippuryl-His-Leu, at-line HPLC-UV assay; for IC50: dipeptide 2.5 - 500 µM, substrate Hip-His-Leu (1 mM), read-out: IC50 means ± SE

CC(C)[C@H](N)C(=O)N[C@@H](CCC(N)=O)C(=O)O [VQ] (H-Val-Gln-OH) was tested, and the “residual ACE activity (in % of control) 20 µM dipeptide mean” value was 68.5 % of control and the “residual ACE activity (in % of control) 200 µM dipeptide mean” value was 77.40 % of control.

For CC(C)[C@H](N)C(=O)N[C@@H](CCCNC(=N)N)C(=O)O [VR] (H-Val-Arg-OH), the “residual ACE activity (in % of control) 20 µM dipeptide mean” value was 74.9 % of control and the “residual ACE activity (in % of control) 200 µM dipeptide mean” value was 46.10 % of control.

In the case of CC(C)[C@H](N)C(=O)N[C@@H](CO)C(=O)O [VS] (H-Val-Ser-OH), the “residual ACE activity (in % of control) 20 µM dipeptide mean” value is reported as 78.1 % of control and the “residual ACE activity (in % of control) 200 µM dipeptide mean” value is reported as 74.95 % of control.

With CC(C)[C@H](N)C(=O)N[C@H](C(=O)O)[C@@H](C)O [VT] (H-Val-Thr-OH) the “residual ACE activity (in % of control) 20 µM dipeptide mean” value was 73.9 % of control and the “residual ACE activity (in % of control) 200 µM dipeptide mean” value was 73.75 % of control.

In the case of CC(C)[C@H](N)C(=O)N[C@H](C(=O)O)C(C)C [VV] (H-Val-Val-OH), the “residual ACE activity (in % of control) 20 µM dipeptide mean” value is reported as 72.8 % of control and the “residual ACE activity (in % of control) 200 µM dipeptide mean” value is reported as 78.25 % of control.

CC(C)[C@H](N)C(=O)N[C@@H](Cc1ccc(O)cc1)C(=O)O [Val-Tyr] (H-Val-Tyr-OH) showed an IC50 of 81 µM.

In the case of C[C@H](NC(=O)[C@@H](N)Cc1c[nH]c2ccccc12)C(=O)O [WA] (H-Trp-Ala-OH), the “residual ACE activity (in % of control) 20 µM dipeptide mean” value is reported as 82.6 % of control and the “residual ACE activity (in % of control) 200 µM dipeptide mean” value is reported as 54.70 % of control.

In the case of N[C@@H](Cc1c[nH]c2ccccc12)C(=O)N[C@@H](CC(=O)O)C(=O)O [WD] (H-Trp-Asp-OH), the “residual ACE activity (in % of control) 20 µM dipeptide mean” value is reported as 88.3 % of control and the “residual ACE activity (in % of control) 200 µM dipeptide mean” value is reported as 90.30 % of control.

With N[C@@H](Cc1c[nH]c2ccccc12)C(=O)N[C@@H](CCC(=O)O)C(=O)O [WE] (H-Trp-Glu-OH) the “residual ACE activity (in % of control) 20 µM dipeptide mean” value was 85.5 % of control and the “residual ACE activity (in % of control) 200 µM dipeptide mean” value was 90.90 % of control.

For CC[C@H](C)[C@H](NC(=O)[C@@H](N)Cc1c[nH]c2ccccc12)C(=O)O [WI, Trp-Ile] (H-Trp-Ile-OH), the “residual ACE activity (in % of control) 20 µM dipeptide mean” value was 67.2 % of control, the “residual ACE activity (in % of control) 200 µM dipeptide mean” value was 11.30 % of control and the IC50 was 100 µM.

For NCCCC[C@H](NC(=O)[C@@H](N)Cc1c[nH]c2ccccc12)C(=O)O [WK] (H-Trp-Lys-OH), the “residual ACE activity (in % of control) 20 µM dipeptide mean” value was 82.3 % of control and the “residual ACE activity (in % of control) 200 µM dipeptide mean” value was 69.05 % of control.

In the case of CC(C)C[C@H](NC(=O)[C@@H](N)Cc1c[nH]c2ccccc12)C(=O)O [WL, Trp-Leu] (H-Trp-Leu-OH), the “residual ACE activity (in % of control) 20 µM dipeptide mean” value is reported as 52.9 % of control, the “residual ACE activity (in % of control) 200 µM dipeptide mean” value is reported as 9.00 % of control and the IC50 is reported as 105 µM.

In the case of NC(=O)CC[C@H](NC(=O)[C@@H](N)Cc1c[nH]c2ccccc12)C(=O)O [WQ] (H-Trp-Gln-OH), the “residual ACE activity (in % of control) 20 µM dipeptide mean” value is reported as 86.3 % of control and the “residual ACE activity (in % of control) 200 µM dipeptide mean” value is reported as 60.75 % of control.

With N=C(N)NCCC[C@H](NC(=O)[C@@H](N)Cc1c[nH]c2ccccc12)C(=O)O [WR] (H-Trp-Arg-OH) the “residual ACE activity (in % of control) 20 µM dipeptide mean” value was 76.7 % of control and the “residual ACE activity (in % of control) 200 µM dipeptide mean” value was 38.95 % of control.

With N[C@@H](Cc1c[nH]c2ccccc12)C(=O)N[C@@H](CO)C(=O)O [WS] (H-Trp-Ser-OH) the “residual ACE activity (in % of control) 20 µM dipeptide mean” value was 86.5 % of control and the “residual ACE activity (in % of control) 200 µM dipeptide mean” value was 54.55 % of control.

With C[C@@H](O)[C@H](NC(=O)[C@@H](N)Cc1c[nH]c2ccccc12)C(=O)O [WT] (H-Trp-Thr-OH) the “residual ACE activity (in % of control) 20 µM dipeptide mean” value was 89.0 % of control and the “residual ACE activity (in % of control) 200 µM dipeptide mean” value was 75.80 % of control.

In the case of CC(C)[C@H](NC(=O)[C@@H](N)Cc1c[nH]c2ccccc12)C(=O)O [WV] (H-Trp-Val-OH), the “residual ACE activity (in % of control) 20 µM dipeptide mean” value is reported as 85.4 % of control and the “residual ACE activity (in % of control) 200 µM dipeptide mean” value is reported as 54.00 % of control.

In the case of N[C@@H](Cc1c[nH]c2ccccc12)C(=O)N[C@@H](Cc1c[nH]c2ccccc12)C(=O)O [WW] (H-Trp-Trp-OH), the “residual ACE activity (in % of control) 20 µM dipeptide mean” value is reported as 75.7 % of control and the “residual ACE activity (in % of control) 200 µM dipeptide mean” value is reported as 31.55 % of control.

N[C@@H](Cc1c[nH]c2ccccc12)C(=O)N[C@@H](Cc1ccc(O)cc1)C(=O)O [WY, Trp-Tyr] (H-Trp-Tyr-OH) was tested, and the “residual ACE activity (in % of control) 20 µM dipeptide mean” value was 61.5 % of control, the “residual ACE activity (in % of control) 200 µM dipeptide mean” value was 13.85 % of control and the IC50 was 113 µM.

In the case of N[C@@H](Cc1ccc(O)cc1)C(=O)N[C@@H](CC(=O)O)C(=O)O [YD] (H-Tyr-Asp-OH), the “residual ACE activity (in % of control) 20 µM dipeptide mean” value is reported as 86.2 % of control and the “residual ACE activity (in % of control) 200 µM dipeptide mean” value is reported as 88.65 % of control.

For N[C@@H](Cc1ccc(O)cc1)C(=O)N[C@@H](CCC(=O)O)C(=O)O [YE] (H-Tyr-Glu-OH), the “residual ACE activity (in % of control) 20 µM dipeptide mean” value was 89.5 % of control and the “residual ACE activity (in % of control) 200 µM dipeptide mean” value was 89.45 % of control.

N[C@@H](Cc1ccc(O)cc1)C(=O)N[C@@H](Cc1c[nH]cn1)C(=O)O [YH] (H-Tyr-His-OH) was tested, and the “residual ACE activity (in % of control) 20 µM dipeptide mean” value was 80.9 % of control and the “residual ACE activity (in % of control) 200 µM dipeptide mean” value was 43.30 % of control.

In the case of NCCCC[C@H](NC(=O)[C@@H](N)Cc1ccc(O)cc1)C(=O)O [YK] (H-Tyr-Lys-OH), the “residual ACE activity (in % of control) 20 µM dipeptide mean” value is reported as 85.7 % of control and the “residual ACE activity (in % of control) 200 µM dipeptide mean” value is reported as 77.10 % of control.

CSCC[C@H](NC(=O)[C@@H](N)Cc1ccc(O)cc1)C(=O)O [YM] (H-Tyr-Met-OH) was tested, and the “residual ACE activity (in % of control) 20 µM dipeptide mean” value was 82.6 % of control and the “residual ACE activity (in % of control) 200 µM dipeptide mean” value was 61.55 % of control.

With NC(=O)CC[C@H](NC(=O)[C@@H](N)Cc1ccc(O)cc1)C(=O)O [YQ] (H-Tyr-Gln-OH) the “residual ACE activity (in % of control) 20 µM dipeptide mean” value was 83.3 % of control and the “residual ACE activity (in % of control) 200 µM dipeptide mean” value was 75.35 % of control.
